In the supplement of paper PMC5499739:
In all, about 16,000 sequences were measured (“Z-score”: median about -0.37, highest 2% from about 3.1 on). Some of the results follow.

Each sequence was assayed on RBM10 RRM1-ZnF-RRM2 (GST-tagged construct) (assay: RNAcompete 7-mer binding Z-score; higher = stronger binding preference).
In short: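 Each heptamer motif was given a one-sided Z-score for enrichment across the probes that contained it. GST-tagged RBM10 constructs (20 pmol) were combined with 1.5 nmol of a designed pool of 241 399 RNAs of up to 41 nt, transcribed from microarray-derived DNA templates. Binding took place in 1 ml Hepes pH 7.8 buffer containing KCl, NaCl, glycerol, DTT, BSA and glutathione Sepharose beads for 30 min at 4°C. After four 2-min washes at 4°C, bound RNA was identified by microarray hybridisation.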

| Sequence | RNAcompete 7-mer binding Z-score |
| --- | --- |
| AACCGAG | -0.0233 |
| CGCGCGA | -0.296 |
| UGACCUC | -0.806 |
| CUGAGUU | -0.497 |
| AGGGGUG | 3.14 |
| GGGUUUG | 2.34 |
| CAUGCCG | -0.785 |
| CGUCCAG | -0.5 |
| ACACUUA | -0.701 |
| CUUUUGC | -0.952 |
| CCUCGUC | -0.766 |
| AGCUUUU | -0.792 |
| UGACAAU | 0.115 |
| UUGGGGG | 3.03 |
| GAGCAAU | -0.0233 |
| UGUUCGG | 0.024 |
| GGGGGUA | 3.52 |
| AGCAUUA | -0.238 |
| ACCUUUU | -1.03 |
| UCUACGC | -0.836 |
| GGGACCA | 1.9 |
| CAUCAUU | -0.664 |
| CUAGUAA | -0.541 |

| Sequence | RNAcompete 7-mer binding Z-score |
| --- | --- |
| CAUGGUA | 0.319 |
| UGGACAG | 1.45 |
| AACGUCG | -0.103 |
| CGCUCUG | -0.657 |
| AGAAACC | -0.613 |
| CGCCAGG | 0.148 |
| CAACCCA | -0.617 |
| GAAAAAG | 1.52 |
| UGCCGCG | -0.657 |
| CAACUGC | -0.763 |
| UGUACGG | 0.701 |
| UGCUUCU | -0.737 |
| CGAUUAG | -0.0488 |
| UAAAUCG | -0.464 |
| AUUCGCA | -0.431 |
| AGUUACG | 0.0313 |
| UCCAAGA | -0.315 |
| GCCGAGC | -0.0998 |
| CCCACUG | -0.697 |
| GGUAUAU | 0.92 |
| AGGUAGC | 0.862 |
| AGCGAUC | -0.129 |
| GUUCUUC | -0.708 |

| Sequence | RNAcompete 7-mer binding Z-score |
| --- | --- |
| ACCUACG | -0.821 |
| UUAUGUG | -0.256 |
| CGGUUUG | 0.232 |
| AAAUGUG | 0.465 |
| GAUCGUC | -0.417 |
| GCGGUGC | 0.836 |
| GGUUGUG | 1.78 |
| UAAGACG | 0.144 |
| CGUCACG | -0.562 |
| CUGAAUG | -0.38 |
| CGAUAGU | -0.078 |
| GAUGACG | 0.698 |
| CUUACAA | -0.785 |
| CGGCCCG | -0.668 |
| CAGGUGA | 1.54 |
| AAGCGAA | 0.221 |
| CACUGGU | -0.144 |
| CGCGCAC | -0.592 |
| GCAGUGU | 0.206 |
| GGAUAGA | 2.48 |
| GUCAGUC | -0.144 |
| UAACCCU | -0.901 |
| UUCGAUU | -0.766 |

| Sequence | RNAcompete 7-mer binding Z-score |
| --- | --- |
| AGAAGCC | -0.861 |
| UAAAUCC | -0.763 |
| CCCUCAU | -0.777 |
| CCCAUUA | -0.908 |
| UUCAUCC | -0.748 |
| CUGAAAC | -0.694 |
| GUAGGCG | 2.29 |
| GGAUUGC | 0.88 |
| AGCACCC | -0.533 |
| GAACGGC | 0.84 |
| GCUGGAC | 0.111 |
| GGAUAGG | 4.1 |
| ACUACGC | -0.752 |
| AUGGCCC | -0.213 |
| CAAUGUC | -0.34 |
| AGUUGUA | 0.108 |
| CCAACAC | -0.482 |
| UUGCCCU | -0.919 |
| AAUUGAU | -0.224 |
| CAACAGA | -0.114 |
| GCCGUAA | -0.388 |
| ACUACAC | -0.57 |
| CUUAACG | -0.57 |

| Sequence | RNAcompete 7-mer binding Z-score |
| --- | --- |
| ACGCACA | -0.566 |
| GGAGUGU | 2.6 |
| GACUUAU | -0.723 |
| UGAGCCG | -0.14 |
| GCAGAGG | 2.33 |
| UUCACGU | -0.606 |
| UCAUGUA | -0.537 |
| CCGAAAA | -0.704 |
| CUUUGGG | 0.439 |
| AAAGGUU | 3.09 |
| GAGGGCC | 1.12 |
| CUACAUU | -0.854 |
| UGGGCGA | 3.11 |
| CAUCGGU | -0.296 |
| AGCUGCC | -0.795 |
| UUUCAAG | -0.581 |
| AGAGGAA | 2.46 |
| UCGACCC | -0.803 |
| AUAAAAU | -0.46 |
| AGUCUUG | -0.613 |
| AGGGCCA | 0.752 |
| GCGAAGC | 0.436 |
| CGCUACU | -0.73 |

| Sequence | RNAcompete 7-mer binding Z-score |
| --- | --- |
| GAUUCCU | -0.832 |
| GUCGGGC | 1.13 |
| UCGGUCG | 0.0131 |
| UGAGUAU | -0.125 |
| UAUUCCA | -0.606 |
| GGAACAC | 1.11 |
| GCCGAGA | -0.275 |
| UUACCGA | -0.544 |
| AAUUACA | -0.511 |
| GUUAUGC | -0.406 |
| ACGCAGU | -0.475 |
| AUGCGAG | 0.731 |
| AUUGACG | -0.067 |
| CUGGGCG | 1.05 |
| ACGGCAU | 0.148 |
| CACGACU | -0.643 |
| AGCGCCA | -0.428 |
| GGUUAUG | 1.39 |
| AAUGCUU | -0.668 |
| GACGUUC | -0.774 |
| CGAGUGA | 0.476 |
| UGAGGAU | 1.69 |
| UGCCCAC | -0.537 |

| Sequence | RNAcompete 7-mer binding Z-score |
| --- | --- |
| AUCUAAA | -0.577 |
| ACAGGUG | 2.02 |
| AUUGUGU | -0.388 |
| CUCCAGU | -0.639 |
| GGAGUUA | 1.67 |
| CUUUAUU | -0.763 |
| GAGCGCA | -0.0816 |
| CUCACCC | -0.883 |
| AGAUAAC | -0.34 |
| UGGUUGC | 0.312 |
| GGGACGC | 1.41 |
| UCAUAAA | -0.413 |
| UCGUUUG | -0.409 |
| GCUACCU | -0.825 |
| GGGACCC | 0.712 |
| UCAACUA | -0.697 |
| ACAUCGA | -0.402 |
| GCGUGUG | 0.618 |
| ACCUGCC | -1.04 |
| GUGCCAG | 0.272 |
| UUGAUAU | -0.588 |
| GCGAUGU | 0.33 |
| UGUCCAC | -0.606 |

| Sequence | RNAcompete 7-mer binding Z-score |
| --- | --- |
| ACGCCAA | -0.65 |
| GCGGAAG | 1.8 |
| CUCUGAC | -0.774 |
| CCAAGGU | 0.253 |
| ACUAUAC | -0.624 |
| UCUUUUA | -0.628 |
| GCAUUAU | -0.282 |
| GUUCUAA | -0.595 |
| UGCAGAG | 0.567 |
| AGUUUGU | -0.271 |
| GCCAUCA | -0.675 |
| GGCUAUU | -0.173 |
| CUCAAAA | -0.719 |
| GUCGCUC | -0.391 |
| UUCUGCU | -0.868 |
| ACCUGGA | -0.329 |
| GCAGGGA | 2.94 |
| UAUGUCA | -0.191 |
| CCGUUAG | -0.519 |
| GAGUGUC | -0.129 |
| CCUUACU | -0.916 |
| GGCAUUC | -0.202 |
| UUCUAAC | -0.73 |
